Molecular target: T1, GST-ß1-AR(425–477) (human, UniProt P08588 425-477)
T1 construct: carboxy-tail of the human ß1-adrenergic receptor, amino acids 425–477 (SmaI-XhoI fragment in pGEX-4T-2); ends in the type-1 PDZ ligand ESKV; also called GST-tagged ß1-AR C-tail; GST-ß1-AR C-tail; source: BL21 bacteria, purified (glutathione resin, dialyzed in PBS with 10% glycerol); not shown: GST, N-terminal, kept
T1 sequence (looked up): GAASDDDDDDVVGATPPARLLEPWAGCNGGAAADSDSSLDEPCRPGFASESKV
Experiment: pull-down; increasing concentrations of purified GST-ß1-AR(425–477) mixed with lysate of HEK-293 cells over-expressing SAP97-YFP (0.2% Triton X-100 in PBS), glutathione beads, 2 h at 4°C; anti-SAP97 blot, optical densities, half-maximal value from n = 3; apparent EC50
Details: one partner purified

B1: WT rSAP97-YFP (natural protein, rat)
chain: MPVRKQDTQRALHLLEEYRSKLSQTEDRQLRSSIERVISIFQSNLFQALIDIQEFYEVTLLDNPKCVDHSKQCEPVQPGNPWESGSLSSAAVTSESLPGGLSPPVEKYRYQDEEVLPSERISPQVPNEVLGPELVHVSEKSLSEIENVHGFVSHSHISPIKPTEAVPPSSPIVPVTPALPVPAESPVVLPSTPQANPPPVLVNTDSLETPTYVNGTDADYEYE[about 80 residues left out]KAFRKNHEIKLIKGPKGLGFSIAGGVGNQHIPGDNSIYVTKIIEGGAAHKDGKLQIGDKLLAVNSVCLEEVTHEEAVTALKNTSDFVYLKAAKPTSMYINDGYAPPDITNSSSQSVDNHVSPSSYLGQTPASPARYSPISKAVLGDDEITREPRKVVLHRGSTGLGFNIVGGEDGEGIFISFILAGGPADLSGELRKGDRIISVNSVDLRAASHEQAAAALKNAGQAVTIVAQYRPEEYSRFEAKIHDLRETMMNSSVSSGSGSLRTSQKRSLYVRALFDYDKTKDSGLPSQGLNFKFGDILHVINASDDEWWQARQVTPDGESDEVGVIPSKRRVEKKERARLKTVKFNSKTRGDKGEIPDDMGSKGLKHVTSNASDSESSYHEYGCSKGGQEEYVLSYEPVNQQEVNYTRPVIILGPMKDRVNDDLISEFPDKFGSCVPHTTRPKRDYEVDGRDYHFVTSREQMEKDIQEHKFIEAGQYNNHLYGTSVQSVRAVAEKGKHCILDVSGNAIKRLQIAQLYPISIFIKPKSMENIMEMNKRLTDEQARKTFERAVRLEQEFTEHFTAIVQGDTLEDIYNQVKQIIEEQSGPYIWVPAKEKL
notes: Printed both as SAP97-YFP and as YFP-SAP97; also called YFP-SAP97
For B1, the EC50 was 500 nM.
